The record followed here is PubChem BioAssay AID1745853 (National Center for Advancing Translational Sciences (NCATS), 2022).

The other results are listed elsewhere or left out. Shown are side measurements of this screen, not its main read-out; they come without a call.

Test in all cases: Primary Screen for Target Class Profiling of Small Molecule Inhibitors of Methyltransferases
For test [1], the target named is Glycine N-methyltransferase (Homo sapiens) (UniProt Q14749). To be noted: purified enzyme, MTase-Glo SAH luminescence; measured here: GNMT inhibition; at 40 µM; stronger effect = lower value. In short, it runs like this: (§1)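 Each enzyme was reacted with SAM and its substrate, with compounds tested once at 40 uM; SAH formed was read by MTase-Glo luminescence.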
Test [2] concerns the target Guanidinoacetate N-methyltransferase (Homo sapiens) (UniProt Q14353). To be noted: purified enzyme, MTase-Glo SAH luminescence; measured here: GAMT inhibition; at 40 µM; stronger effect = lower value. In short, it runs like this:
as §1

Test [3] concerns the target Histamine N-methyltransferase (Homo sapiens) (UniProt P50135). To be noted: purified enzyme, MTase-Glo SAH luminescence; measured here: HNMT inhibition; at 40 µM; stronger effect = lower value. In short, it runs like this:
as §1

Test [4] concerns the target Nicotinamide N-methyltransferase (Homo sapiens) (UniProt P40261). To be noted: purified enzyme, MTase-Glo SAH luminescence; measured here: NNMT inhibition; at 40 µM; stronger effect = lower value. In short, it runs like this: as §1
In test [5] the target is Phenylethanolamine N-methyltransferase (Homo sapiens) (UniProt P11086). To be noted: purified enzyme, MTase-Glo SAH luminescence; measured here: PNMT inhibition; at 40 µM; stronger effect = lower value. In short, it runs like this: as §1
% is scaled to controls: 0 for no effect and ±100 for the full control effect.

On to `CCC1CCCCN1C(=O)Cn1c(=O)oc2cc(S(=O)(=O)N3CCCCC3)ccc21` (stereo unspecified), for which the activity change, negative = inhibition in test [1] was 2.06%; in test [2] it was 1.74%; in test [3] it was 1.04%; in test [4] it was 2.27%; in test [5], -0.92%.
For `CN(C)C(=O)CCN1CCOC(CC(c2ccccc2)c2ccccc2)C1` (stereo unspecified), the activity change, negative = inhibition in test [1] was -5.89%; in test [2] it was -9.77%; in test [3], -4.62%; in test [4] it was -15.8%; in test [5], -12%.
Taken in the same sequence, the figures for `CCC(C(=O)NCc1cccc(Cl)c1)n1ccc2cc(S(=O)(=O)N3CCCCC3)ccc21` (stereo unspecified) were 7.21%, 0.386%, 6.79%, 4.37% and 3.08%.
Taken in the same sequence, the figures for `OCCN1CCN(CC/C=C2/c3ccccc3Sc3ccc(C(F)(F)F)cc32)CC1` were -3.1%, 8.23%, -21.6%, -38.6% and 4.44%.
Regarding `Fc1ccc(-c2noc(-c3ncn4c3COC(c3ccccc3Cl)C4)n2)cc1` (stereo unspecified), the activity change, negative = inhibition was -7.83% in test [1]; -4.53% in test [2]; -5.45% in test [3]; -2.11% in test [4]; -4.92% in test [5].
For the compound `O=C(Nc1ccc(Cl)cc1)c1nc2c(o1)CCN(Cc1ccncc1)CC2`, the activity change, negative = inhibition in test [1] was -18.2%; in test [2] it was -7.37%; in test [3] it was -19.2%; in test [4], -10.5%; in test [5], -10.3%.
As to `OC(c1ccccc1)c1nc(Nc2ccc3c(c2)OCO3)n[nH]1` (stereo unspecified), the activity change, negative = inhibition in test [1] is -24.5%; in test [2] it was -14.4%; in test [3], -6.95%; in test [4], -20.4%; in test [5], -27.1%.
In the same order, the values of `CC(C)(O)[C@@H]1CC[C@]2(CO)[C@@H](O)CC[C@](C)(O)[C@H]2[C@@H]1O[C@@H]1O[C@H](CO)[C@@H](O)[C@H](O)[C@H]1O` are -1.54%, -0.255%, 7.19%, -14.7% and -9.79%.
Regarding `COc1ccc(-c2nnc(-c3ccc(Cl)c(S(=O)(=O)N4CCCCC4)c3)o2)cc1`, the activity change, negative = inhibition worked out at 14.2% in test [1]; 1.69% in test [2]; 12.6% in test [3]; 7.56% in test [4]; 7.54% in test [5].
In the same order, the values of `Cc1cnc(C(=O)N[C@@H]2CCC[C@@H]2C(=O)N2CCC(N3CCCCC3)CC2)cn1` are -9.14%, -12.3%, -12.4%, -19.5% and -14.3%.
Taken in the same sequence, the figures for `CCCn1nc2c(c1C)C(c1ccc(OCC(N)=O)c(Cl)c1)CC(=O)N2` (stereo unspecified) were -6.25%, -3.47%, 0.117%, -17.5% and -4.17%.
On to `O=C(CCc1nnc2n(Cc3ccccc3Cl)c(=O)c3ccccc3n12)NCCN1CCCC1`, for which the activity change, negative = inhibition in test [1] is -1.66%; in test [2], 0.39%; in test [3], -18.8%; in test [4] it was 14.4%; in test [5], 1.79%.
In the same order, the values of `COc1ccccc1N1CCN(C(=O)Cn2c(C)cc3nc4n(c(=O)c32)CCCCC4)CC1` are -5.04%, -1.52%, -0.377%, -6.86% and -4.04%.
In the case of `Cc1cccc(CNC(=O)C2(C)Cn3cnc(C(=O)NC4CCCCC4)c3C(=O)N2C2CC2)c1` (stereo unspecified), the activity change, negative = inhibition in test [1] is 1.05%; in test [2] it was 1.19%; in test [3], 5.71%; in test [4] it was -1.97%; in test [5], 6.18%.
`CC12CC(O)C(O)C=C1c1cc(O)cc(O)c1C(=O)O2` (stereo unspecified): the activity change, negative = inhibition in test [1] was 5.12%; in test [2], 4.78%; in test [3] it was 7.83%; in test [4], -7.59%; in test [5] it was 6.95%.
Taken in the same sequence, the figures for `O=C(NCC1CC1)c1nc2c(o1)CCN(CCCc1ccccc1)CC2` were -8.96%, -7.35%, -7.13%, -13% and -25.2%.
Consider `C/C(=C1/C(=O)Nc2ccc(NC(N)=O)cc21)c1ccc[nH]1`, for which the activity change, negative = inhibition in test [2] is 3.99%; in test [4], -39.3%; in test [5], 1.06%.
Turning to `Cc1cc(F)ccc1NC(=O)CCC1CCCN(C(=O)c2ccc(Cl)s2)C1` (stereo unspecified), the activity change, negative = inhibition in test [1] was -7.11%; in test [2] it was -10.3%; in test [3] it was -4.85%; in test [4], -15.7%; in test [5], -8.67%.
Taken in the same sequence, the figures for `COC(=O)c1ncn2c1C(=O)N(c1cc(C)cc(C)c1)C(C)(C(=O)NC1CCCC1)C2` (stereo unspecified) were 2.62%, 0%, -3.03%, 1.29% and -2.2%.
Taken in the same sequence, the figures for `CC(C)n1cc(C(=O)N2CCCC(c3nnc(Cn4ccnc4)n3C)C2)cn1` (stereo unspecified) were -1.25%, -3.57%, 0.56%, -8.11% and -2.08%.
For the compound `COc1ccc2cc3n(c2c1)CC(C)(C(=O)NC1CCCCC1)N(CCCN1CCCCC1)C3=O` (stereo unspecified), the activity change, negative = inhibition is -2.29% in test [1]; 2.35% in test [2]; -3.29% in test [3]; -1.06% in test [4]; -4.88% in test [5].
Taken in the same sequence, the figures for `COc1ccc(OC)c(S(=O)(=O)N2CCCC(Cc3ncc(C)n3C(C)C)C2)c1` (stereo unspecified) were -6.75%, -4.11%, -1.32%, -17.5% and -3.17%.
With `COc1cccc(N2C(=O)c3cc(-c4cccs4)nn3CC2(C)C(=O)NC2CCCCCC2)c1` (stereo unspecified), the activity change, negative = inhibition was 3.32% in test [1]; 0.316% in test [2]; 8.29% in test [3]; -0.719% in test [4]; 1.73% in test [5].
In the same order, the values of `O=c1cc(-c2cccnc2)oc2c(NCCc3ccccn3)nccc12` are -18.2%, -16.2%, -17.6%, -34.6% and -11.8%.
Consider `CC(NC(=O)c1cc2n(n1)CC(C)(C(=O)NC1CCCCC1)N(C)C2=O)c1ccc2c(c1)OCCO2` (stereo unspecified), for which the activity change, negative = inhibition in test [1] is -3.05%; in test [2], -12.1%; in test [3], 1.6%; in test [4], -6.65%; in test [5], -5.21%.
With `N#C/C(=C\c1ccc(O)c(O)c1)C(=O)Nc1ccccc1`, the activity change, negative = inhibition in test [1] is -18.7%; in test [2], 11.3%; in test [3], 6.22%; in test [4] it was -11.3%; in test [5], 6.74%.
As for `CCN(CC)CC(=O)N1CCC(Oc2ccccc2C)(C(=O)O)CC1`, the activity change, negative = inhibition in test [1] was 0.548%; in test [2] it was -1.58%; in test [3], -0.852%; in test [4], 1.59%; in test [5], 1.53%.
Consider `CCc1cccc(N2C(=O)c3ccc(-c4ccco4)n3CC2(C)C(=O)NC2CCCC2)c1` (stereo unspecified), for which the activity change, negative = inhibition in test [1] was -10.9%; in test [2], 0.776%; in test [3], 6.08%; in test [4] it was 4.04%; in test [5] it was -1.78%.
For the compound `CNc1cc2c(Nc3cccc(Br)c3)ncnc2cn1`, the activity change, negative = inhibition in test [2] is -20.3%; in test [4] it was -26.4%; in test [5], -55.7%.
Take `CCCn1c(=O)c2ccc(C(=O)NCC(C)C)cc2n2c(=O)n(CC(=O)Nc3cc(F)ccc3F)nc12`: the activity change, negative = inhibition is -0.713% in test [1]; 0.286% in test [2]; -0.102% in test [3]; -4.59% in test [4]; -1.71% in test [5].
